According to article PMC12136788:
Some of the results follow.

T1: UNK ZnF1-3 (human, UniProt Q9C0B0 31-174)
T1 sequence: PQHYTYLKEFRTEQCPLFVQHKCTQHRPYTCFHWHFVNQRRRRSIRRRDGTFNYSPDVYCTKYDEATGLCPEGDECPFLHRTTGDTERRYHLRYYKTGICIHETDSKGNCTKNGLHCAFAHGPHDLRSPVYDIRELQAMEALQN

B1: chr12:121221538:121221539:-_ENSG00000157837_ENST00000353487|hu_mus|motif|central (ssRNA)
RNA: GGGAGUUCUACAGUCCGACGAUCGAGGUGAGCAGGGCCUUGUUAAAUACUGGCACAUCGGGAGAAGAAGAAAAGCAAAAGCGGUUGUUGCAAGAACUGCUGUACAUAUUGUGAAAACGACUUGAACUGAAUCAAAGAAGAAGACAACAGAGGAUUGAGCAUCA
B2: chr7:149068622:149068623:-_ENSMUSG00000025139_ENSMUST00000001950|mus_hu|mus_mus_mus_hu_False|48_98 (ssRNA)
RNA: GGGAGUUCUACAGUCCGACGAUCGUGAGGCCUCUGAGUGAGGUUCCUGGUCUGUCCUGGGUUAGAGUUGUUAAUAUCACGGAACAUACCACUUAAGACGUUCCAGUCCCGCCUGACACCUUCAUUCCCAAUGGAGAAGAAAUCCAACAGAGGAUUGAGCAUCA
B3: chr7:141445308:141445309:+_ENSG00000106028_ENST00000265304|hu_hu|hu_hu_hu_mus_False|38_68 (ssRNA)
RNA: GGGAGUUCUACAGUCCGACGAUCUAUGAUUGUUGUUGCUUGCCGCCUCACAUUGUUUUUAUCCAUGUAUUCACCAUAGUCCACUUUCCCUUCCACAUAAAUUCGAGCCCCCUUUUUCACAUACUGAUAUGCCACAUCUCUGAGCAACAGAGGAUUGAGCAUCA
B4: chr12:105536279:105536280:+_ENSG00000136051_ENST00000332180|hu_mus|hu_hu_hu_mus_True|1_78 (ssRNA)
RNA: GGGAGUUCUACAGUCCGACGAUCAGCACUGAACAUGUAAUGUAAUCUGGCUGCAUCAACAGCAUUUUCAUAUACAUCAUCUAAAUAAAUCGGGAAGACAGCGCGAUGCCAGUAUAAAAAACAGCAGUCACACUGUGUUUGGACCAACAGAGGAUUGAGCAUCA
B5: chr9:111175386:111175387:+_ENSMUSG00000046785_ENSMUST00000060711|mus_mus|motif|central (ssRNA)
RNA: GGGAGUUCUACAGUCCGACGAUCCUCAGUUAGUAGAGGCUGAAACUCCGGUCGCCUAACACCUCUGGUCUUAAUCAUAACGGCCCAUUCAGAUAUGGUAUUUAUGAUCUGAUUAAUAUCAACAUCAUAAGAACUCAACAGUUCCAACAGAGGAUUGAGCAUCA
B6: chr14:32562060:32562061:+_ENSG00000100852_ENST00000539826|hu_hu|FALSE|FALSE (ssRNA)
RNA: GGGAGUUCUACAGUCCGACGAUCCUUUAUUUGGGUUUCAUUAAAUUUACGAGGAUAUGUACCAGCAGGUACAUCUACAAAAGGACAUUGCAACUUGUUUGCCAACUGCUGCCCUUGGUGCCUGAGAAUUGGUAGAUUCUUACUCAACAGAGGAUUGAGCAUCA
B7: chr16:75674161:75674162:-_ENSG00000065427_ENST00000302445|hu_hu|FALSE|FALSE (ssRNA)
RNA: GGGAGUUCUACAGUCCGACGAUCCCUACCUGCCACCUUUAAGGUGAUGUCAGUCAGGUGAUCCCCAGGCUGCAGGUGACUAUAUUUUUGGAUGAAGUCAGUGAGUGAGAUGUCUACAUGGAACUUGUGUGGGUAUGGGUCUUCCAACAGAGGAUUGAGCAUCA
B8: chr4:57314706:57314707:+_ENSG00000128050_ENST00000264221|hu_mus|hu_hu_hu_mus_True|58_58 (ssRNA)
RNA: GGGAGUUCUACAGUCCGACGAUCCAGAAUUUCAAAAAUAGCUUGUGUGGCAUGACUCAUGAUGUCCACUUCAGUCUGGCCUAUAAGAAGGCCAGCAAAACAGAAUUUUGCAGCAAUGAGUUGCUCCUCAGACCACUGUGGAUCCAACAGAGGAUUGAGCAUCA
B9: chr7:7679991:7679992:-_ENSG00000106399_ENST00000396682|hu_hu|hu_hu_hu_mus_False|8_68 (ssRNA)
RNA: GGGAGUUCUACAGUCCGACGAUCUGGGAUGAAUCUUUUCCAGCUUCCCCACGAAGCACACGGGCCGGUCGAUGAAUUGUGGUAACAUGCUGGCGUUGACGCGCGCUUUGGGGAGCUGCAUUAUGUCCACCAUGAUUCUGCCGCCAACAGAGGAUUGAGCAUCA
B10: chr1:23637546:23637547:-_ENSG00000125944_ENST00000302271|hu_hu|motif|central (ssRNA)
RNA: GGGAGUUCUACAGUCCGACGAUCGUAGUAAUCUGGAGGGUAGCCAUAUCCACCUCUCCCCCCACCACGACCCCGACCUCGGAUUGGAGGUGGCAUGCGAGGAGGAGGGUGGUAGUAAUAAUCUUCAUACGCAGUGCUUCUGGACAACAGAGGAUUGAGCAUCA
B11: chr4:83122263:83122264:-_ENSMUSG00000028484_ENSMUST00000107214|mus_hu|motif|central (ssRNA)
RNA: GGGAGUUCUACAGUCCGACGAUCAUUUGAUUGUUUAGUUGCUGCCUGUUGACUUGAAAAUUUCACUUUUGGAUUGUUAUCGGUCUCCCAUAAACCUUCAUUAAAACCUUUUCUUUUAUUUGGUUUGCCAUACUUUUCCUUAUUCAACAGAGGAUUGAGCAUCA
B12: chr1:163117127:163117128:-_ENSG00000143248_ENST00000313961|hu_mus|hu_hu_hu_mus_False|1_108 (ssRNA)
RNA: GGGAGUUCUACAGUCCGACGAUCUGCGGGUUAUUAUGUAACUCAACUCACAGGGCAACUUUUGGAAGCCUGACCAGAUGACUACUUGAUUAGCUCCUUAUAAAAUUCAGAGCGCACAAAGCGGGGCAGAGAAUCCUUUUCCAUCAACAGAGGAUUGAGCAUCA
B13: 32875545_32884045_1281_3pUTR_ENSG00000087470_ENST00000452533|human|control|control (ssRNA)
RNA: GGGAGUUCUACAGUCCGACGAUCAAAUGUCAAUAGUGUUAAGGCCACCAAGUGGAUCAACAGAUUCUAAGGUUCGCCCAAAAGUCUCAUGGAAAAUAUAACAAAUUCUAGCACCACCGCAUAGCUCCGAAGUUUCAAUAUAUUCAACAGAGGAUUGAGCAUCA
B14: 83243669_83244672_1640_3pUTR_ENSMUSG00000031715_ENSMUST00000043359|mouse|control|control (ssRNA)
RNA: GGGAGUUCUACAGUCCGACGAUCUAUGUCUAUAUCUUUCAUUAAUAUCCGAGUAUACCAUUCUCUUUGCAUUUUGCUAAGACCCACAUAGAUUUUUACUUCUUUUUUUGGAGGCAAACUCUUUUCAACAUCAGCUUUAAUUCGCAACAGAGGAUUGAGCAUCA
B15: 56177021_56177438_2351_3pUTR_ENSG00000095015_ENST00000399503|human|control|control (ssRNA)
RNA: GGGAGUUCUACAGUCCGACGAUCGACUGCAAAGCAAAGGUUAAGAGGGACAGCAGCUUCUUAUACCUGAUUUCAACAGGCUCAGCUUGUGAAACAUCAGUACUGACAAUAUGAGGAUAAAAUUCAGCAGGAAAUUCCAACAACCAACAGAGGAUUGAGCAUCA
B16: chr13:100194276:100194277:-_ENSMUSG00000052727_ENSMUST00000064762|mus_hu|FALSE|FALSE (ssRNA)
RNA: GGGAGUUCUACAGUCCGACGAUCAAUCUUGCCAGAACUUCAAAAAACAUUAUUCAAUUUUUGUCUUACGAAACACUUAAAAAAAAAGACUAUCACUUGAGAAUUUUCUUUGCAAUUUCCUGUAAAUGAAAACAUUUGUUAAAACAACAGAGGAUUGAGCAUCA
B17: 2585564_2585684_2212_3pUTR_ENSG00000007168_ENST00000397195|human|control|control (ssRNA)
RNA: GGGAGUUCUACAGUCCGACGAUCAAUAUAUCCUACUGAUUUGGCAAAUGUGUCAUGACAAAAAUUCCAAUGUAUAAUCCCCAUUCAUUACAUAGAUGGUUCAGAAGAUUCUGAAUUGUAGCCUUAUCAUCUAAAAUCCUUACACAACAGAGGAUUGAGCAUCA
B18: 50285228_50296650_2469_3pUTR_ENSMUSG00000043531_ENSMUST00000164039|mouse|control|control (ssRNA)
RNA: GGGAGUUCUACAGUCCGACGAUCCUUCCCUGGACACUUCUGUGGUUUGGCGGUAUACUGCUCUCUCACUCCAUCAGUACAAUUAUUGGAGACCACCUUCCUAUACCCAGUGCUGUUGAGGUAACUCUGUCCCAAGCUGCAGUCCAACAGAGGAUUGAGCAUCA
B19: chr5:130536139:130536140:+_ENSMUSG00000025532_ENSMUST00000026608|mus_mus|motif|central (ssRNA)
RNA: GGGAGUUCUACAGUCCGACGAUCUCAGAUUGGAGUUUUCUCUUAUCUCCUAUUCCGCCAAGGACAUUCCUCUACAGUGAGCGGAGCUCUGGGUCAUUUCCCCUAGAGCAGCUGUGUGCAGCUCUGAGAGCUGGUGACCAUCUGCAACAGAGGAUUGAGCAUCA
B20: chr1:163117127:163117128:-_ENSG00000143248_ENST00000313961|hu_mus|hu_hu_hu_mus_False|38_88 (ssRNA)
RNA: GGGAGUUCUACAGUCCGACGAUCUGCUACAAAGGAUGUAACUCAACACUCACAGGAACUUUUGGAAGCCUGACCAGAUGACUACUUGAUUAGCUCCUGAUAAAACUCAGAGCGCACAAAGCGGGGCAGAGAAUCCUUCUCCAUCAACAGAGGAUUGAGCAUCA
B21: chr1:229631753:229631754:-_ENSG00000069248_ENST00000261396|hu_mus|FALSE|FALSE (ssRNA)
RNA: GGGAGUUCUACAGUCCGACGAUCCUGCUUCUCUGAAGAAUCGUCCAGUUCCCAUUUGCUGAUGUUUGAACUCGUCAGGGUGUAGAAACUUGAUCCUCCUCUGUCCCACAGAACACUGGCCAGCAUGAGGUCACUAGUAGGGGACAACAGAGGAUUGAGCAUCA
B22: chr1:204511919:204511920:+_ENSG00000198625_ENST00000367182|hu_hu|motif|central (ssRNA)
RNA: GGGAGUUCUACAGUCCGACGAUCGCCAGCUACAUCCCACUCCUCAAAUCCAAGGUCCAGCCUAGAUGUUUCAUCUUGGGCGGAAUUUUCAAUUAAGUCUUCAUCUUCUCUAGAAUGUAUGCAUUUAUGCUCUGAGGUAGGCAGCAACAGAGGAUUGAGCAUCA

Each binder was assayed against T1, UNK ZnF1-3 (assay: nsRBNS (natural sequence RNA bind-n-seq); RBNS binding buffer (assumed for nsRBNS): 25 mM Tris pH 7.5, 150 mM KCl, 3 mM MgCl2, 0.01% Triton X-100, 500 ug/ml BSA, 20 U/ml SUPERase-In, 4 C; UNK is unkempt and MSI1 is Musashi-1; names of the RNAs are library labels; protein concentration not given here; high values mean tight binding).

Row | Binder | binding signal
1 | B1 | 2.68 enrichment R
2 | B2 | 0.72 enrichment R
3 | B3 | 0.685 enrichment R
4 | B4 | 2.3 enrichment R
5 | B5 | 0.749 enrichment R
6 | B6 | 0.672 enrichment R
7 | B7 | 0.846 enrichment R
8 | B8 | 0.819 enrichment R
9 | B9 | 0.493 enrichment R
10 | B10 | 0.564 enrichment R
11 | B11 | 0.509 enrichment R
12 | B12 | 0.896 enrichment R
13 | B13 | 1.92 enrichment R
14 | B14 | 0.553 enrichment R
15 | B15 | 1.81 enrichment R
16 | B16 | 1.11 enrichment R
17 | B17 | 0.704 enrichment R
18 | B18 | 0.872 enrichment R
19 | B19 | 0.346 enrichment R
20 | B20 | 1.1 enrichment R
21 | B21 | 0.897 enrichment R
22 | B22 | 0.989 enrichment R
